Laboratory results from PubChem BioAssay AID493208 (National Center for Advancing Translational Sciences (NCATS), 2011).
Hit rate of the full screen: of about 44,000 compounds, about 340 (0.77%) were called active. Roughly 5% stayed inconclusive and do not appear here. The call rests on the fitted dose curve; in most records, active means well fitted inhibition curve with a large enough effect; inconclusive means small, poorly fitted or top-dose-only effect; inactive means flat fitted curve, though single readings scatter. This is one part of the list.

Experiment: Acumen qHTS Assay for Inhibitors of the mTORC1 Signaling Pathway in MEF (Tsc2-/-, p53-/-) Cells: Sytravon; further: nearly all actives have a fitted effect of over 50% in size
Conditions: phospho-rpS6 immunofluorescence/PI, 24 h; series mostly up to 38.3 µM; activity change, negative = inhibition: at the top concentration
Source text: NIH Molecular Libraries Probe Production Centers Network [MLPCN] NIH Chemical Genomics Center [NCGC] MLPCN Grant: NS059428-01 Assay Submitter (PI): Blenis, John; Hoffman, Greg; Harvard University NCGC Assay Overview: The mammalian target of rapamycin (mTOR) is an intracellular serine/threonine kinase Aberrant regulation of mTOR signaling plays a causative role in a number of human diseases, including cancer, benign tumors such as lymphangioleiomyomatosis (LAM) and Tuberous Sclerosis Complex (TSC), and metabolic diseases such as diabetes and obesity. This project aims to identify inhibitors of ribosomal protein S6 (rpS6) phosphorylation. The phosphorylation of rpS6 is a key event downstream of mTOR activation. The assay uses a phospho-specific antibody of phospho-rpS6 to detect inhibitors of mTOR activation. Mutations in the Tsc1 and Tsc2 genes are the underlying genetic lesions responsible for TSC, causing constitutive activation of the mTORC1 pathway and leading to profound effects on cell metabolism. Aberrant metabolism in cancer has recently received significant attention as a target to develop therapeutic agents in the treatment of cancer.1 As Tsc2-/- cells have lost the ability to respond to energy and growth factor deprivation, these cells are unable to properly down regulate cellular biosynthetic processes in response to metabolic stress, and are thus extremely sensitive to glucose deprivation-induced death.2 A central goal of this project is to explore the unique cell survival and metabolic properties of cells with Tsc1 or Tsc2 by screening for compounds that selectively target the Tsc2-/- MEFs by screening both Tsc2-/- and WT MEF cell lines. We hope to better understand these aspects of TSC physiology in order to exploit them for therapeutic benefit.
NCGC Acumen Assay Protocol Summary: For quantitative high throughput analysis of mTORC1 signaling, we developed a cell-based assay for immuno-fluorescence based detection of rpS6 phosphorylation on the Acumen Explorer that will be used a platform for the primary small molecule screen. Mouse embryonic fibroblasts (MEFs) are cultured in 1536-well plates using DMEM + 10% FBS. Twenty-four hrs after plating, test compounds (solubilized in DMSO) are delivered and incubated with the cells for 24 hrs at 37 degree Celsius. Following the incubation, media with compound is aspirated and the cells are fixed in 4% paraformaldehyde (PFA) containing PBS + 0.2% TX-100. Next, PFA is aspirated, cells are washed two times with PBS plus 0.2% TX-100 and the cells are blocked for 1 hr at room temperature (blocking buffer: LiCOR Blocking Buffer plus 0.2% TX-100). […] Cells are washed two times with PBS plus 0.2% TX-100, and stained with 10 uM propidium iodide (PI) for 20-25 minutes for cell number measurement (1:500 dilution of Hoescht staining is also added for IN Cell imaging). The plates are scanned on the Acumen Explorer laser scanning instrument (TTP Labtech) using the 488nm laser for simultaneous excitation of the Alexa-488 and PI. […] The normalized phospho-S6 staining is calculated as the ratio of the integrated Alexa 488 intensity divided by the integrated PI intensity for the single concentration rapamycin control (7.5 nM) and DMSO columns. […] Inhibition of the pathway is defined based on the normalized phospho-S6 intensity in rapamycin treated cells. Active cells are defined as those with a normalized phospho-S6 staining above this threshold, and each treatment is reported as the % positive cells in the well, where thresholds are defined by selecting wells with the highest and lowest signal and differentiating between the % non-active and % active populations. In addition to the pathway specific phospho-S6 endpoint, the number of PI stained cells from the Acumen is recorded as a measure of cell viability. The primary screen was performed with a MEF cell line in a defined genetic background, Tsc2-/-, p53-/- cell line stably transfected with an empty vector control (Tsc2-/- MEF).

Row | Structure (SMILES) | activity change, negative = inhibition
1 | Cc1ccc(S(=O)(=O)C(CNC(=O)Cc2ccc(Cl)cc2)c2cccs2)cc1 (stereo not drawn) | inactive: 3.97%
2 | Cc1cccc(Cn2c(=O)n(Cc3ccc4c(c3)OCO4)c(=O)c3oc4ccccc4c32)c1 | inactive: -1.05%
3 | CCc1ccccc1NC(=O)c1cc2nc(-c3ccc(OC)c(OC)c3)cc(C(F)(F)F)n2n1 | inactive: 2.19%
4 | CCOc1ccc(CNC(=O)c2ccc3c(c2)nnn3C2CCCC2)cc1 | inactive: 5.48%
5 | COc1ccccc1N1CCN(C(=O)Nc2cn(CC(C)C)c(=O)c3ccccc23)CC1 | inactive: 6.56%
6 | CCOCCCNC(=O)c1c(NC(=O)c2cc(=O)c3ccccc3o2)sc2c1CCC2 | inactive: 2.78%
7 | O=c1oc2c(CN3CCCC3)c(O)ccc2cc1-c1ccccc1 | inactive: -6.26%
8 | CC(C)C(=O)Nc1cccc(C(=O)Nc2nnc(CC(C)(C)C)s2)c1 | inactive: -5.56%
9 | CCOC(=O)c1ccc(NC(=O)Cn2ncc3c(C)n(Cc4ccccc4F)c(C)c3c2=O)cc1 | inactive: 1.26%
10 | COc1cc2ccccc2cc1C(=O)Nc1ccc2oc(-c3ccc(Cl)cc3)nc2c1 | inactive: -13.7%
11 | O=C(Nc1ccc(C(=O)OCc2cc(=O)n3c4c(sc3n2)CCCC4)cc1)c1ccc(Cl)cc1 | inactive: 3.97%
12 | CC(C)c1ccc(NC(=O)Nc2csc3c2CCCC3)cc1 | inactive: 3.49%
13 | Cc1ccc2c(=O)cc(C(=O)Nc3c(C(=O)Nc4cccc(Cl)c4)oc4ccccc34)oc2c1 | inactive: 7.63%
14 | COc1ccc(NC(=O)c2c(NCc3cccs3)sc3c2CCCC3)cc1 | inactive: 1%
15 | CCOc1cccc(NC(=O)C2CC(=O)N(C)C(=Nc3ccc(F)cc3)S2)c1 (stereo not drawn) | inactive: -15.2%
16 | O=C(c1ccc(Br)s1)N(Cc1cccnc1)c1nc2ccc(F)cc2s1 | inactive: -0.0162%
17 | CCOc1ccccc1NC(=O)CN1C(=O)COc2ccc(S(=O)(=O)N3CCCCC3)cc21 | inactive: -5.53%
18 | Cc1ccc(N2C(=O)CSC23C(=O)N(CC(=O)NC2CCCCC2)c2ccccc23)cc1C (stereo not drawn) | inactive: 5.08%
19 | Cn1cc(C(c2ccccc2)c2ccc(Cl)s2)c2ccccc21 (stereo not drawn) | inactive: 1.13%
20 | Cc1ccc2nc(COc3ccccc3NC(=O)COc3ccccc3Cl)cc(=O)n2c1 | inactive: -27.8%
21 | Cc1ccc(CNC(=O)C2CCN(S(=O)(=O)c3c(C)noc3/C=C/c3c(C)cc(C)cc3C)CC2)cc1 | inactive: -14.2%
22 | CSc1ncc(C(=O)NCc2ccc(C)cc2)c(-c2ccccc2)n1 | inactive: -5.39%
23 | CCNC(=O)C1CCN(Cc2cc3ccccc3n2Cc2ccc(C)cc2)CC1 | inactive: -10.6%
24 | CCOC(=O)c1c(C)oc2nc(C)nc(N3CCN(c4ccc(OC)cc4)CC3)c12 | inactive: -9.52%

Row | Structure (SMILES) | activity change, negative = inhibition
25 | CCOc1ccccc1CNC(=O)CCCN1C(=O)c2cccnc2Oc2ccc(Cl)cc21 | inactive: -0.13%
26 | COc1ccccc1Cn1c(SCC(=O)C(C)(C)C)nc2ccccc2c1=O | inactive: -4.43%
27 | COC(=O)CN1C(C(=O)c2ccccc2)=C(OC(=O)c2ccc(C)cc2)c2ccccc2S1(=O)=O | inactive: 2%
28 | O=C(c1cccn1-c1nnc(N2CCCCC2)s1)N1CCN(c2ccccc2)CC1 | inactive: 1.22%
29 | CCn1c(=O)c2sccc2n2c(CCC(=O)NCc3ccc(Cl)cc3)nnc12 | inactive: -7.49%
30 | CCS(=O)(=O)c1ccccc1C(=O)N1CCN(c2nc3ccccc3s2)CC1 | inactive: -3.3%
31 | N#Cc1ccc(CSc2nnc(-c3ccc(Br)cc3)o2)cc1 | inactive: 1.9%
32 | CCOC(=O)C1CCN(C(=O)Cn2ncc3c4ccccc4n(C)c3c2=O)CC1 | inactive: -2.15%
33 | COc1ccc(CNC(=O)CCCN2C(=O)c3cccnc3Oc3ccc(Cl)cc32)cc1 | inactive: -6.5%
34 | Cc1oc(-c2cccc(Cl)c2)nc1CSCC(=O)NCc1ccccc1Cl | inactive: 1.7%
35 | Cc1ccc(-n2c(SCC(=O)Nc3ccc4c(c3)OCCO4)nc3c([nH]c4ccccc43)c2=O)cc1 | inactive: -5.19%
36 | Cc1cccc(NS(=O)(=O)c2nnc(NC(=O)c3cccc(C)c3)s2)c1 | inactive: 6.04%
37 | COCCNC(=O)c1ccc(-c2nc(CN3CCc4ccccc43)c(C)o2)cc1 | inactive: -11.1%
38 | Cc1ccc(OCC(=O)Nc2sc3c(c2C(N)=O)CCCC3)c(C(C)(C)C)c1 | inactive: 1.51%
39 | Cc1csc2nc(COC(=O)c3ccc(NC(=O)C(C)C)cc3)cc(=O)n12 | inactive: 0%
40 | CC(C)OCCCNC(=O)CN1C(=O)COc2ccc(S(=O)(=O)N3CCOCC3)cc21 | inactive: -10.4%
41 | COc1ccccc1NC(=O)c1ncoc1-c1ccco1 | inactive: 15.4%
42 | Cc1cccc(NC(=O)c2cc3c(=O)n4ccccc4nc3n2C)c1C | inactive: -0.121%
43 | CCCCNC(=O)Cn1cnc2sc(C)c(S(=O)(=O)N3CCN(c4ccccc4OC)CC3)c2c1=O | inactive: -2.01%
44 | O=C(Cn1ncc2c3ccccc3n(Cc3ccccc3F)c2c1=O)NCCCc1ccccc1 | inactive: 0.443%
45 | CCOc1ccc2nc(NC(=O)c3ccccc3)sc2c1 | inactive: -5.25%
46 | COC(=O)c1ccccc1NC(=O)CSc1nc2nc(C)cc(C)n2n1 | inactive: -34.1%
47 | Cc1ccc(C(=O)Nc2ccc(Br)cc2)cc1S(=O)(=O)NCc1ccccc1 | inactive: 2.12%
48 | COc1ccc(-c2nc3ccccc3s2)cc1NC(=O)COc1cccc(C)c1 | inactive: -1.36%
